{
  "source": "PubChem BioAssay AID1347073",
  "about": "(National Center for Advancing Translational Sciences (NCATS), 2019)",
  "note": "The whole screen tested about 45,000 compounds, of which about 200 (0.44%) were called active. Roughly 7% stayed inconclusive and do not appear here. Calls follow the shape of the dose curve; as a rule, active = well fitted activation curve with a large enough effect; inconclusive = small, poorly fitted or top-dose-only effect; inactive = no such curve, though single readings can be large or run the other way. This is one part of the list.",
  "data": [
    {"experiment": "qHTS of TDP-43 Inhibitors: NCGC Sytravon Library Screen; also: 0% is about no effect; nearly all actives have a fitted effect of over 55% in size", "conditions": "yeast TDP-43 toxicity rescue, BacTiter-Glo growth, 24 h; series mostly up to 46.1 µM; growth rescue (activation): at the top concentration", "how_it_was_run": "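TDP-43-expressing yeast, pregrown in raffinose, seeded at OD600 0.02 in galactose medium with compound for 24 hr at 30 deg C. Growth read by BacTiter-Glo luminescence, so rescue of toxicity appears as activation.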", "values": [
      {"smiles": "O=C(CNS(=O)(=O)c1cccc(Br)c1)NCC1CCCCC1", "growth rescue (activation)": "inactive: 12.2%"},
      {"smiles": "COc1ccc(S(=O)(=O)N2CCOCC2)cc1NC(=O)CN1CCCc2ccccc21", "growth rescue (activation)": "inactive: -2.48%"},
      {"smiles": "COc1ccc(S(=O)(=O)N(CC(=O)NCc2ccccn2)Cc2ccccc2)cc1", "growth rescue (activation)": "inactive: 8.2%"},
      {"smiles": "O=C(c1cc2ccccc2oc1=O)N(Cc1cccs1)CC1CCCO1", "note": "(stereo not drawn)", "growth rescue (activation)": "inactive: -7.61%"},
      {"smiles": "Cc1ccc(OCC(=O)NCCCNC(=O)c2ccccn2)cc1", "growth rescue (activation)": "inactive: 0.211%"},
      {"smiles": "CSc1ccc(C(=O)C2CCCN(C(=O)c3cccc(N4CCOCC4)c3)C2)cc1", "note": "(stereo not drawn)", "growth rescue (activation)": "inactive: 18.4%"},
      {"smiles": "Cc1ccc(S(=O)(=O)N[C@H](C(=O)OCC(=O)N2N=C(c3ccc(Cl)cc3)CC2c2ccco2)C(C)C)cc1", "note": "(stereo partly drawn)", "growth rescue (activation)": "inactive: 15.4%"},
      {"smiles": "COCCn1c(Sc2nc(C)cs2)nc2c1c(=O)[nH]c(=O)n2C", "growth rescue (activation)": "inactive: 19.9%"},
      {"smiles": "CCN(C(=O)COC(=O)c1cccn1C)C1CCS(=O)(=O)C1", "note": "(stereo not drawn)", "growth rescue (activation)": "inactive: -2.53%"},
      {"smiles": "NS(=O)(=O)c1ccc2nc(NC(=O)c3ccc(Br)o3)sc2c1", "growth rescue (activation)": "inactive: 4.03%"},
      {"smiles": "COc1ccc2c(c1)nc(N)n2Cc1ccccc1", "growth rescue (activation)": "inactive: 13.4%"},
      {"smiles": "COc1ccccc1N(C)S(=O)(=O)c1ccc(Cl)c(C(=O)OCc2c(C)noc2C)c1", "growth rescue (activation)": "inactive: 10.7%"},
      {"smiles": "Cc1nnc(C)c2c(C)n(-c3ccc(Cl)c(N)c3)c(C)c12", "growth rescue (activation)": "inactive: -0.461%"},
      {"smiles": "NC(=O)C1CCN(c2oc(-c3cccs3)nc2S(=O)(=O)c2ccc(Cl)cc2)CC1", "growth rescue (activation)": "inactive: 22.8%"},
      {"smiles": "CCc1ccc(C(=O)NCC2(c3ccccc3)CCOCC2)o1", "growth rescue (activation)": "inactive: -4.66%"},
      {"smiles": "CC12CCC(C(=O)NCc3cccnc3)(OC1=O)C2(C)C", "note": "(stereo not drawn)", "growth rescue (activation)": "inactive: 15.3%"},
      {"smiles": "CCc1ccc(NC(=S)N(CCC(C)C)C2CCN(C(C)=O)CC2)cc1", "growth rescue (activation)": "inactive: 32.7%"},
      {"smiles": "O=C1N(Cc2cccc(Cl)c2)C[C@@H]2C[C@@H](c3cccc4ncccc34)N3CCC[C@@]123", "growth rescue (activation)": "inactive: 10.2%"},
      {"smiles": "C=CCN(CC(=O)NC1CCCC1)C(=O)C(=O)Nc1ccc2c(c1)OCCO2", "growth rescue (activation)": "inactive: -10.8%"},
      {"smiles": "CCCn1c(SCC(=O)Nc2cccc(C(=O)OC)c2)nnc1-c1cccnc1", "growth rescue (activation)": "inactive: -1.01%"},
      {"smiles": "CCOCCCN1C(=O)c2ccccc2CC1(C)C(=O)NC1CCCCC1", "note": "(stereo not drawn)", "growth rescue (activation)": "inactive: 13.6%"},
      {"smiles": "CCCCCC(=O)NNC(=O)c1ccc(F)cc1", "growth rescue (activation)": "inactive: 4.64%"},
      {"smiles": "O=C(COc1cccnc1[N+](=O)[O-])Nc1cccc(S(=O)(=O)N2CCCCC2)c1", "growth rescue (activation)": "inactive: 0.588%"},
      {"smiles": "CCOc1ccc(C(=O)NC(=S)Nc2ccccc2N2CCCCC2)cc1[N+](=O)[O-]", "growth rescue (activation)": "inactive: 22.2%"},
      {"smiles": "Cc1nc(C)c(NC(=O)OC(C)C)cc1NC(=O)OC(C)C", "growth rescue (activation)": "inactive: 5.82%"},
      {"smiles": "NC(=O)COC(=O)c1ccccc1SCC(=O)NC1CCCCCC1", "growth rescue (activation)": "inactive: 3.46%"},
      {"smiles": "CCOCCCNC(=O)Cn1nc(Cc2ccncc2)c2ccccc2c1=O", "growth rescue (activation)": "inactive: 8.41%"},
      {"smiles": "COCC1CCN(Cc2nc(-c3ccc(OC)cc3)no2)CC1", "growth rescue (activation)": "inactive: 8.78%"},
      {"smiles": "Cc1nn(-c2ccccc2)c2nc(Cl)c(C(=O)O)cc12", "growth rescue (activation)": "inactive: 13%"},
      {"smiles": "O=C(CNS(=O)(=O)c1ccccc1)OCC(=O)c1ccc(F)cc1", "growth rescue (activation)": "inactive: -23.7%"},
      {"smiles": "CNCc1c(OCc2ccc(F)cc2)ccc2ccccc12", "growth rescue (activation)": "inactive: 1.56%"},
      {"smiles": "COc1ccc(Cl)cc1NC(=O)C1CCN(C(=O)C2CC(=O)N(c3ccc(C)cc3)C2)CC1", "note": "(stereo not drawn)", "growth rescue (activation)": "inactive: 6.92%"},
      {"smiles": "Cc1cc(NC(=O)Cc2ccccc2)no1", "growth rescue (activation)": "inactive: -3.51%"},
      {"smiles": "CCCCOC(=O)CSC(=S)N(C)Cc1cccs1", "growth rescue (activation)": "inactive: 27.4%"},
      {"smiles": "Cc1nnc(SCC(=O)NCC2CCCO2)n1Cc1ccccc1", "note": "(stereo not drawn)", "growth rescue (activation)": "inactive: -1.24%"},
      {"smiles": "O=C(NNC(=O)c1n[nH]c(=O)c2ccccc12)c1ccc(Br)cc1", "growth rescue (activation)": "inactive: 17.6%"},
      {"smiles": "COc1ccccc1CNc1nc(Nc2ccccc2OC)c2sccc2n1", "growth rescue (activation)": "inactive: 1.3%"},
      {"smiles": "COc1ccccc1CC(=O)Nc1ccc2c(c1)CCC2", "growth rescue (activation)": "inactive: 20.7%"},
      {"smiles": "Cc1cccc(C(=O)N[C@H](C(=O)NCCc2ccc(Cl)cc2)C(C)C)c1", "growth rescue (activation)": "inactive: 16.6%"},
      {"smiles": "Cn1c(Nc2ccc(F)cc2)nc2ccccc21", "growth rescue (activation)": "inactive: 3.32%"},
      {"smiles": "CCOc1ccc(NC(=O)C2CC(=O)N(c3ccccc3F)C2)cc1", "note": "(stereo not drawn)", "growth rescue (activation)": "inactive: -11.1%"},
      {"smiles": "Nc1cccc2c1C(=O)N(C(=O)c1ccco1)C2=O", "growth rescue (activation)": "inactive: 1.44%"},
      {"smiles": "Cc1cccc(-n2c(O)c(C=Nc3c(C)n(C)n(-c4ccccc4)c3=O)c3ccccc3c2=O)n1", "growth rescue (activation)": "inactive: -0.952%"},
      {"smiles": "O=C(Nc1ccc(F)cc1)Nc1cc(OCC(F)(F)F)cc(OCC(F)(F)F)c1", "growth rescue (activation)": "inactive: 8.54%"},
      {"smiles": "O=C(Nc1sc2c(c1C(=O)O)CCCC2)c1ccc(Cl)cc1", "growth rescue (activation)": "inactive: -22.4%"},
      {"smiles": "CN1/C(=C/C(=O)COC(=O)C2COc3ccccc3O2)C(C)(C)c2ccccc21", "note": "(stereo not drawn)", "growth rescue (activation)": "inactive: 4.56%"},
      {"smiles": "CC(C)CN(C(=O)c1cccc(Cl)c1)c1c(N)n(CC(C)C)c(=O)[nH]c1=O", "growth rescue (activation)": "inactive: 2.66%"},
      {"smiles": "COC(=O)c1cc(C(=O)Nc2nnc(CC(C)(C)C)s2)cc([N+](=O)[O-])c1", "growth rescue (activation)": "inactive: 7.8%"},
      {"smiles": "O=C(COc1ccc(-c2nnco2)cc1)Nc1cc([N+](=O)[O-])ccc1F", "growth rescue (activation)": "inactive: 18.7%"},
      {"smiles": "Cc1cc(O)ccc1-c1cc(C(=O)NCc2cc(C(F)(F)F)cc(C(F)(F)F)c2)[nH]n1", "growth rescue (activation)": "inactive: 13.1%"},
      {"smiles": "O=C(Cn1nc(C(=O)O)c2ccccc2c1=O)Nc1ccc(Cl)c(S(=O)(=O)N2CCOCC2)c1", "growth rescue (activation)": "inactive: 1.76%"},
      {"smiles": "CC1CN(CCCCOc2ccc(Cl)c3ccccc23)CC(C)O1", "note": "(stereo not drawn)", "growth rescue (activation)": "inactive: 13.5%"},
      {"smiles": "CC(C)c1nnc(SCC(=O)NC2CCCCC2)n1C", "growth rescue (activation)": "inactive: 7.24%"},
      {"smiles": "O=C(c1ccc(=O)[nH]c1)N(Cc1cccs1)C1(C(=O)NC2CCCC2)CCCCC1", "growth rescue (activation)": "inactive: 12.2%"},
      {"smiles": "O=C(c1cncc(Br)c1)N1CCN(S(=O)(=O)c2ccccc2)CC1", "growth rescue (activation)": "inactive: 23%"},
      {"smiles": "COc1ccc(NC(=O)CN2CCN(Cc3ccccc3)CC2)cc1", "growth rescue (activation)": "inactive: -2.26%"},
      {"smiles": "O=[N+]([O-])c1ccc(N2CCN(Cc3ccc([N+](=O)[O-])o3)CC2)cc1", "growth rescue (activation)": "inactive: 26.1%"},
      {"smiles": "CCOc1ccccc1/C=N/NC(=O)c1cccc(S(=O)(=O)N2CCOCC2)c1", "growth rescue (activation)": "inactive: -5.83%"},
      {"smiles": "Cc1ccc(C)c(N(CC(=O)NC2CCCC2)C(=O)CCC(=O)Nc2nccs2)c1", "growth rescue (activation)": "inactive: 9.57%"},
      {"smiles": "COc1ccccc1C1N=C(c2ccccc2C)NO1", "note": "(stereo not drawn)", "growth rescue (activation)": "inactive: 16.2%"},
      {"smiles": "CCN(CC(=O)NCc1ccco1)S(=O)(=O)c1ccc(F)cc1", "growth rescue (activation)": "inactive: -6%"},
      {"smiles": "CCN(CC)C(=O)c1cccc(-c2csc(C(O)c3ccccc3)n2)c1", "note": "(stereo not drawn)", "growth rescue (activation)": "inactive: 15%"},
      {"smiles": "O=C(NN=C1C2CC3CC(C2)CC1C3)c1cccc(S(=O)(=O)N2CCOCC2)c1", "growth rescue (activation)": "inactive: -5.76%"},
      {"smiles": "O=C1NC(c2ccc(Br)cc2)=N/C1=C/c1ccco1", "growth rescue (activation)": "inactive: 7.17%"},
      {"smiles": "COc1ccc(CSCC(=O)NN=C2CCN(C)CC2)cc1", "growth rescue (activation)": "inactive: 12.6%"},
      {"smiles": "CCOC(=O)Cc1cc(-c2ccc(F)cc2)nc2ccc3ccccc3c12", "growth rescue (activation)": "inactive: -9.37%"},
      {"smiles": "Cc1csc(=O)n1CC(=O)Nc1ccc(C(C)C)cc1", "growth rescue (activation)": "inactive: 16.3%"},
      {"smiles": "CCOc1ccccc1CNC(=O)c1ccc2c(c1)N(Cc1ccc(C)cc1)CCS2", "growth rescue (activation)": "inactive: 5.76%"}
    ]}
  ]
}
